Data as given in PMC12136788.
The other results are listed elsewhere or left out.

T1: UNK ZnF1-3 (human, UniProt Q9C0B0 31-174)
T1 sequence: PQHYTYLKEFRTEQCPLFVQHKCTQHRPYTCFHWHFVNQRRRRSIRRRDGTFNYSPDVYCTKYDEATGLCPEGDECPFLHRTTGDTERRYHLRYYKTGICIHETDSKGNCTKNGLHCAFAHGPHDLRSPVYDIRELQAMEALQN

B1: chr22:32879901:32879902:+_ENSG00000100225_ENST00000397426|hu_mus|hu_hu_hu_mus_False|98_108 (ssRNA)
RNA: GGGAGUUCUACAGUCCGACGAUCCUCUGCCAUAUGCGCAUUAUCUUGAAUUGACUCAGCUUCAACAUUUUGACUAGGCCCUUCCAUACUGUCAUCAGUCCAGGCAUCAAAUGGGGUGGCCUGUCCUUGGGAUGAAUCAGUCCCCAACAGAGGAUUGAGCAUCA
B2: chr3:148802587:148802588:-_ENSG00000071794_ENST00000310053|hu_mus|hu_hu_hu_mus_False|18_98 (ssRNA)
RNA: GGGAGUUCUACAGUCCGACGAUCUCCAACAACUUGUCCUCUCAAACUUCCAAAUAAAACCAAAUCUUGCUCUUCAUCACUCGUUAGGAAGUCAUCUGGAGGAAUAAUGUCUUGGAAUUCAAAACGUGGCAAGAAAGUUGAGUACAACAGAGGAUUGAGCAUCA
B3: chr8:104433209:104433210:+_ENSG00000164934_ENST00000297579|hu_hu|motif|central (ssRNA)
RNA: GGGAGUUCUACAGUCCGACGAUCAAAGCCUUCAUGUGCUUGUAUUGUACGGAUACAAUUCCGCUGAGUUAGAUUCCAAAUUCGGACCUCUCCAUCACACGCCCCAGAAAGGACAGUAGCCAGCUUCUCUGGAUGCUUUGCCAACAACAGAGGAUUGAGCAUCA
B4: chr13:31711309:31711310:-_ENSG00000120694_ENST00000320027|hu_hu|motif|central (ssRNA)
RNA: GGGAGUUCUACAGUCCGACGAUCCAUAAAGACUACAGACUUAAGCUUUUUUUCUUUUUCCAUAUAAUACACAAAAUUUCGGAAUAUCCUUAAAAAAGAAAAUAUAAAUAGUUUCAGUAUGUUAUGUAGAGUCACAUACUAUGGCAACAGAGGAUUGAGCAUCA
B5: chr5:145598128:145598129:+_ENSMUSG00000045482_ENSMUST00000132925|mus_mus|FALSE|FALSE (ssRNA)
RNA: GGGAGUUCUACAGUCCGACGAUCGAGGUGUAUGCACAUGGGACACCACGUGGGGCAGCCGCCUCCACUCACGGAUAGCCAAGCUGCUGGCCAUCUCCACCAGGCGCUCAAUGAAGCUGAGCUGCUGUUCCUCGGGGUGGCAAACAACAGAGGAUUGAGCAUCA
B6: chr12:53619734:53619735:+_ENSMUSG00000035133_ENSMUST00000110725|mus_mus|FALSE|FALSE (ssRNA)
RNA: GGGAGUUCUACAGUCCGACGAUCUAUAUACCCAUGAACCAGUUCAUCUUUUCUUACUCCAAUUGAGGAGUGGUAUGACAAUAUUGUGAUCUGUAUUCGCCUCCUUUUUUCACCAAUAAUUUUGUCAAGCAUUAAAGAAUUAUUCAACAGAGGAUUGAGCAUCA

Molecular target: T1, UNK ZnF1-3
Assay: nsRBNS (natural sequence RNA bind-n-seq); RBNS binding buffer (assumed for nsRBNS): 25 mM Tris pH 7.5, 150 mM KCl, 3 mM MgCl2, 0.01% Triton X-100, 500 ug/ml BSA, 20 U/ml SUPERase-In, 4 C; UNK is unkempt and MSI1 is Musashi-1; names of the RNAs are library labels; protein concentration not given here; high values mean tight binding

| Binder | binding signal [enrichment R] |
| --- | --- |
| B1 | 1.03 |
| B2 | 1.09 |
| B3 | 0.96 |
| B4 | 0.621 |
| B5 | 0.898 |
| B6 | 0.891 |
